PubChem BioAssay AID1259400 (National Center for Advancing Translational Sciences (NCATS), 2018)
Hit rate of the full screen: of about 350,000 compounds, about 2,100 (0.6%) were called active. The shares of active, inactive and inconclusive entries below differ from those in the screen.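 How the source made its calls: active means activity change of -60% or lower, but not beyond a set lower limit; inconclusive means change between -60% and -40%, or beyond the set limit; inactive means change above -40%.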

molecular target: Relaxin receptor 1 (Homo sapiens) (UniProt Q9HBX9); experiment: qHTS Assay for Antagonists of the Relaxin Receptor RXFP1; details: HEK293-RXFP1, relaxin-stimulated cAMP HTRF, 30 min; at 57.5 µM; active compounds read low
Chain of UniProt Q9HBX9 (Q9HBX9 whole entry, looked up): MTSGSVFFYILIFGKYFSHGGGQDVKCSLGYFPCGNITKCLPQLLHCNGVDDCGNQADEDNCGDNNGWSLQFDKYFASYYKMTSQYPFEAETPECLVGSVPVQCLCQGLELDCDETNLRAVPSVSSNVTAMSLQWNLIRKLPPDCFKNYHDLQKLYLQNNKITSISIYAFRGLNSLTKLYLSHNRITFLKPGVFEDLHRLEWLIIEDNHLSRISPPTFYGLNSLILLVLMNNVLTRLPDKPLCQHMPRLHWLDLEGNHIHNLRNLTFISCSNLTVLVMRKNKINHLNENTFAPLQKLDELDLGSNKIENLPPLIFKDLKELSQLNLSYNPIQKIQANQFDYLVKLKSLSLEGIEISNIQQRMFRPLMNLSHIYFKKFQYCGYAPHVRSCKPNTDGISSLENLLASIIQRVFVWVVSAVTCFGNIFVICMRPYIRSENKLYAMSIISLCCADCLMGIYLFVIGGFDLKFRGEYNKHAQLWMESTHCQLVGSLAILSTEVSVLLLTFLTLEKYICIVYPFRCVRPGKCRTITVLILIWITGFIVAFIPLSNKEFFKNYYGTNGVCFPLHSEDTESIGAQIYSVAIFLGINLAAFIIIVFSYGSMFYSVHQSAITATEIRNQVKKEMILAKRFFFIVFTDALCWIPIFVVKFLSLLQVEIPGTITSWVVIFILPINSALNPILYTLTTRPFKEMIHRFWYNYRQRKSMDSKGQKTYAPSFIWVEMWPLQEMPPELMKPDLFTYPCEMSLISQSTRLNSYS
On the % scale 0 is the no-effect control and ±100 the full control effect.

Row | Compound | activity change, negative = inhibition
1 | CC1=C(C(=O)Nc2ccccn2)C(c2ccc(Cl)cc2)NC(=S)N1 (centres undefined) | inconclusive: -52.8%
2 | COC(=O)c1sc2nc(C)nc(SCC(=O)N3CCC(C(=O)O)CC3)c2c1C | inactive: 5.08%
3 | Fc1ccccc1CSc1ccc(-c2ccco2)nn1 | inactive: -14.4%
4 | O=C(Nc1ccc(CN2CCCCC2)cc1)c1cccc(Br)c1 | inconclusive: -40.8%
5 | NC(=O)N/N=C(/CCCCCC/C(=N\NC(N)=O)c1ccccc1)c1ccccc1 | inconclusive: -45.3%
6 | CCCC(=O)Nc1ccc2oc(-c3cccnc3)nc2c1 | inactive: -0.77%
7 | CCc1ccc(NC2=NCC(c3ccccc3)S2)cc1 (centres undefined) | active: -68.6%
8 | Cc1ccc(-c2csc3nc[nH]c(=S)c23)cc1 | inconclusive: -50.7%
9 | CC1CCN(c2ncnc3c2cnn3-c2ccc(F)cc2)CC1 | inactive: -13.1%
10 | Fc1cc(F)c(C2SCCN2C(=S)Nc2cccc(C(F)(F)F)c2)c(F)c1 (centres undefined) | inactive: -14.5%
11 | CCOC(=O)c1ccccc1NC(=O)Cn1ncc2c([nH]c3ccccc32)c1=O | inactive: -14.2%
12 | Cc1cc(NC(=O)CSc2ccc(-c3ccc(F)cc3)nn2)no1 | inactive: -3.78%
13 | O=C(OCC(=O)c1cccc2ccccc12)c1ccc(CO)cc1 | inconclusive: -57.7%
14 | COC(=O)c1ccc(/C=C/C(=O)OCC(=O)Nc2sccc2C(N)=O)cc1 | inconclusive: -40.8%
15 | COc1cccc(NC(=O)CCC2CCN(C(=O)C3CC=CCC3)CC2)c1 (centres undefined) | inactive: -9.02%
16 | CC(=O)C1=C(c2ccc(Br)cc2)C(=O)c2ccccc2C1=O | inactive: -16.2%
17 | COc1ccc(NC(=O)C2CCN(S(=O)(=O)c3c(C)noc3/C=C/N(C)C)CC2)cc1 | inconclusive: -41.5%
18 | COc1cccc(N2CC(O)=C(c3nc4ccccc4c(=O)[nH]3)C2=N)c1 | inactive: -6.01%
19 | COCc1c(C(=O)Nc2ccc3nc(N4CCOCC4)sc3c2)oc2ccccc12 | inconclusive: -51.8%
20 | C=CC[n+]1c(-c2ccc(C)cc2)csc1Nc1c(C)n(C)n(-c2ccccc2)c1=O | inconclusive: -40.7%
21 | Oc1ccc(N=Cc2ccc(-c3cccs3)s2)cc1 | inconclusive: -57.5%
22 | COc1ccc(NC(=O)CCS(=O)(=O)c2nc(-c3cccs3)cc(C(F)(F)F)n2)cc1OC | inconclusive: -48.8%
23 | O=C(CN1C(=O)NC2(CCCCC2)C1=O)Nc1ccc(N2CCCCC2)cc1 | inconclusive: -46.1%

Row | Compound | activity change, negative = inhibition
24 | O=C(NC1CC2CCCC(C1)N2Cc1ccccc1)c1ccc([N+](=O)[O-])cc1 (centres undefined) | inactive: 2.54%
25 | CN(Cc1cn(-c2ccccc2)nc1-c1cc2ccccc2o1)C(=O)CCC(=O)O | inconclusive: -48%
26 | COc1cc(/C=N/N=C(\N)c2nonc2N)ccc1O | inconclusive: -57.3%
27 | COc1ccc(C(=O)OCC(=O)N2c3ccccc3CC2C)cc1S(=O)(=O)N1CCOCC1 (centres undefined) | inactive: 3.07%
28 | CC(C)Oc1ccc(C(=O)OC(C)C(=O)NC2CCCCC2C)cc1 (centres undefined) | inactive: -1.01%
29 | CCCCCCCc1n[nH]c(=S)n1Cc1ccccc1 | inconclusive: -43.7%
30 | CCOC(=O)C1=C(N)Oc2cc(O)ccc2C1c1ccc([N+](=O)[O-])cc1 (centres undefined) | inconclusive: -46%
31 | CCOC(=O)c1ccc(NC(=O)c2c(NCc3cccc(OC)c3OC)sc3c2CCC3)cc1 | inconclusive: -45.2%
32 | O=C(CCNC(=O)c1ccccc1)NN=Cc1ccc(Br)o1 | inconclusive: -41%
33 | CNc1nc(Cl)c(SC)c(NC2CCCCC2)n1 | inactive: -12.5%
34 | Cc1oc2c(c1C(=O)c1ccccc1)C(=O)C(=O)c1ccccc1-2 | active: -65.5%
35 | CC1SC(=S)N(c2ccc(N(C)C)cc2)C1=O (centres undefined) | inconclusive: -40.6%
36 | Cc1nc(N)c(C#N)c(-c2ccccc2Cl)c1C | inactive: -31.2%
37 | COc1ccc(NC(=O)NCCCN2CCC(Cc3ccccc3)CC2)cc1 | inactive: -12.6%
38 | O=C1/C(=C/c2ccncc2)Oc2cc(OS(=O)(=O)c3ccccc3)ccc21 | active: -82.4%
39 | COc1cccc(NC(=O)Cc2cccs2)c1 | inactive: -2.01%
40 | CN1CCN(C2Cc3ccccc3Sc3ccc(Cl)cc32)CC1 (centres undefined) | inconclusive: -45.1%
41 | O=C1CCCC/C1=C\Nc1ccccc1C(=O)O | inactive: 0.519%
42 | CCc1ccc(C(C(=O)NC2CCCC2)N(Cc2cccnc2)C(=O)c2csnn2)cc1 (centres undefined) | inconclusive: -58.7%
43 | Cc1cccc(NC(=O)c2nc(S(=O)(=O)Cc3ccccc3)ncc2Cl)c1 | active: -89.5%
44 | COc1ccc(CN(C)C(=O)C23CC4CC(CC(C4)C2)C3)c(OC)c1 | inconclusive: -50.4%
45 | CCN1CCN(c2nnc(-c3ccc(F)cc3)c3ccccc23)CC1 | inconclusive: -51.4%
46 | Cc1nnc(N2CCCC(C(=O)NCCc3ccccc3)C2)c2nn(-c3ccccc3)c(C)c12 (centres undefined) | inconclusive: -43.9%

Row | Compound | activity change, negative = inhibition
47 | CCCNC(=O)OCC12CC3CC(CC(C3)C1)C2 | inconclusive: -43.5%
48 | COc1ccc(-c2cc(C(=O)Nc3ccccc3O)c3ccccc3n2)cc1 | inconclusive: -55.2%
49 | Cc1ccsc1-c1nc(CSCC(=O)N2CCN(c3ccccc3)CC2)c(C)o1 | inactive: -5.48%
50 | O=C(CN1C(=O)/C(=C/c2ccccc2)SC1=S)NC1CCS(=O)(=O)C1 (centres undefined) | active: -61.5%
51 | CC1=NN(c2ccc(Cl)cc2)C(=O)C1C(c1ccccc1O)c1c(C)[nH]n(-c2ccc(Cl)cc2)c1=O (centres undefined) | inconclusive: -44.4%
52 | COc1ccc2cc(CNCCOCCOCCNCc3ccc4cc(OC)ccc4c3)ccc2c1 | active: -88.7%
53 | O=C1CC(c2ccc(F)cc2)CC2=C1C(c1ccc([N+](=O)[O-])o1)Nc1ccccc1N2 (centres undefined) | inconclusive: -45.7%
54 | COc1cc(OC)cc(C(=O)Nc2cccc(-c3cn4cccnc4n3)c2)c1 | inactive: 5.51%
55 | O=C(COC(=O)c1cc(NS(=O)(=O)c2cccs2)ccc1O)Nc1cc(Cl)ccc1Cl | inconclusive: -52%
56 | Cc1ccc(-c2nc(CS(=O)(=O)CC(=O)NCc3ccccc3Cl)c(C)o2)cc1 | inconclusive: -46.4%
57 | COc1ccc(N2CC(NC(=O)COc3ccc4ccccc4c3)CC2=O)cc1 (centres undefined) | inconclusive: -45.4%
58 | O=C(NNC(=O)c1cc(-c2cccnc2)nc2ccccc12)Nc1ccc(Cl)cc1 | active: -73%
59 | CC1CCCCN1S(=O)(=O)c1cc2c3c(c1)CC(=O)N3CCC2 (centres undefined) | inconclusive: -45.7%
60 | Cc1cc(C)cc(OCC(=O)N(Cc2ccc(Cl)cc2)CC2CCCO2)c1 (centres undefined) | inconclusive: -59.1%
61 | CCN(CC)c1ccc(-c2n[nH]c(=S)n2-c2ccccc2)cc1 | inconclusive: -50.8%
62 | Cc1c(C(=O)N(Cc2ccc(Cl)cc2)CC2CCCO2)oc2ccc(F)cc12 (centres undefined) | inconclusive: -47.5%
63 | CCOC(=O)C1(CCOc2ccccc2)CCN(Cc2ccc(OCCO)cc2)CC1 | inactive: 4.64%
64 | CCN(CC(=O)Nc1ccc(OC)cc1)C(=O)c1oc2c(Cl)cccc2c1C | active: -99.8%
65 | C(=C\c1nc2ccccc2[nH]1)/c1ccccc1 | inactive: 9.09%
66 | Cc1c(Cl)cccc1-n1c(SCC(=O)NCc2ccccc2)nc2n[nH]c(C)c2c1=N | inconclusive: -47.8%
67 | O=S(=O)(c1ccc(Cl)c(NC(=S)N/N=C/c2ccc(O)cc2)c1)N1CCOCC1 | inconclusive: -51.7%
68 | CCOc1ccccc1C(=O)NCC(=O)N1CCC(C)CC1 | inconclusive: -44.9%
69 | CNc1nc(-c2ccccn2)nnc1-c1ccccc1 | inactive: 12.8%

Row | Compound | activity change, negative = inhibition
70 | Cc1cccc(OCC(=O)Nc2ccccc2N2CCCCC2)c1C | inconclusive: -41.2%
71 | Cc1cccc(CNC(=O)Cc2csc3ccccc23)c1 | inactive: -11.7%
72 | Cn1cc(Cl)c(C(=O)Nc2nc3ccc([N+](=O)[O-])cc3s2)n1 | inconclusive: -51.1%
73 | Clc1ccc(COc2ccccn2)cc1Cl | inactive: -6.37%
74 | CN(C)c1ccc(C(=O)OCC(=O)c2ccc[nH]2)cc1 | inconclusive: -45.7%
75 | C=C1N(C)c2cc([N+](=O)[O-])c(N)cc2C1(C)C | active: -71%
76 | CC(C)Cn1c(SCC(=O)Nc2cc(Cl)c(Cl)cc2Cl)nc(O)cc1=O | inconclusive: -42.5%
77 | CCOc1ccc(NC(=O)OCCN2CCN(CCc3ccccc3)C(C)C2)cc1 (centres undefined) | inactive: 7.14%
78 | Cc1ccc(-n2ncc3c(NCCc4ccccc4)ncnc32)cc1C | inconclusive: -46.7%
79 | Cc1ccc(C(=O)Sc2cccccc2=O)cc1 | inconclusive: -56.6%
80 | COc1ccc2c(c1)CC/C2=N\OC(=O)c1ccccc1C | inconclusive: -59.2%
81 | COc1cc2cc(C)c3nnc(SCC(=O)Nc4cc(C)on4)n3c2cc1OC | inactive: 2.81%
82 | CC(C)Cn1c(=S)[nH]c2cc(Cl)ccc21 | inconclusive: -52.2%
83 | O=C(CNC(=O)c1ccccc1F)OCC(=O)N1CCCc2ccccc21 | inactive: -8.46%
84 | O=C(Nc1nc(-c2ccco2)c(-c2ccco2)s1)c1ccc(F)cc1F | inconclusive: -43.4%
85 | CCOc1ccc(CCNC(=O)c2ccc(CS(=O)(=O)Cc3ccccc3Cl)o2)cc1OCC | inconclusive: -57.3%
86 | COC(=O)C1=C(C)NC(C)=C(C(=O)O[C@@H]2CCCN(Cc3ccccc3)C2)[C@@H]1c1cccc([N+](=O)[O-])c1 | inconclusive: -57%
87 | CC1CCCN(CCOc2ccc3ccccc3c2Br)C1 (centres undefined) | inconclusive: -55%
88 | O=C(O)CCC(=O)Nc1ccccc1C(=O)NCCc1ccccc1 | inactive: -5.56%
89 | CCN(CC)S(=O)(=O)c1cc(NC(=O)Cn2ncc(Cl)c(Cl)c2=O)ccc1C | inconclusive: -53.1%
